The text below walks through data of US20110207917A1 (PATRYS, published 2011).

For test [1], the target named is T1, Apolipoprotein B100 (UniProt P04114 28-4563).
T1 construct: also called apoB100; ApoB100 protein
Kind of test: ELISA on a panel of coated antigens (0.5 ug/well). (ELISA stands for enzyme-linked immunosorbent assay.)

Test [2] addresses T1, Apolipoprotein B100. Description: ELISA on coated ApoB100 (10 ug/ml), anti-FLAG-HRP detection.

T1 sequence (P04114 28-4563 limits assumed): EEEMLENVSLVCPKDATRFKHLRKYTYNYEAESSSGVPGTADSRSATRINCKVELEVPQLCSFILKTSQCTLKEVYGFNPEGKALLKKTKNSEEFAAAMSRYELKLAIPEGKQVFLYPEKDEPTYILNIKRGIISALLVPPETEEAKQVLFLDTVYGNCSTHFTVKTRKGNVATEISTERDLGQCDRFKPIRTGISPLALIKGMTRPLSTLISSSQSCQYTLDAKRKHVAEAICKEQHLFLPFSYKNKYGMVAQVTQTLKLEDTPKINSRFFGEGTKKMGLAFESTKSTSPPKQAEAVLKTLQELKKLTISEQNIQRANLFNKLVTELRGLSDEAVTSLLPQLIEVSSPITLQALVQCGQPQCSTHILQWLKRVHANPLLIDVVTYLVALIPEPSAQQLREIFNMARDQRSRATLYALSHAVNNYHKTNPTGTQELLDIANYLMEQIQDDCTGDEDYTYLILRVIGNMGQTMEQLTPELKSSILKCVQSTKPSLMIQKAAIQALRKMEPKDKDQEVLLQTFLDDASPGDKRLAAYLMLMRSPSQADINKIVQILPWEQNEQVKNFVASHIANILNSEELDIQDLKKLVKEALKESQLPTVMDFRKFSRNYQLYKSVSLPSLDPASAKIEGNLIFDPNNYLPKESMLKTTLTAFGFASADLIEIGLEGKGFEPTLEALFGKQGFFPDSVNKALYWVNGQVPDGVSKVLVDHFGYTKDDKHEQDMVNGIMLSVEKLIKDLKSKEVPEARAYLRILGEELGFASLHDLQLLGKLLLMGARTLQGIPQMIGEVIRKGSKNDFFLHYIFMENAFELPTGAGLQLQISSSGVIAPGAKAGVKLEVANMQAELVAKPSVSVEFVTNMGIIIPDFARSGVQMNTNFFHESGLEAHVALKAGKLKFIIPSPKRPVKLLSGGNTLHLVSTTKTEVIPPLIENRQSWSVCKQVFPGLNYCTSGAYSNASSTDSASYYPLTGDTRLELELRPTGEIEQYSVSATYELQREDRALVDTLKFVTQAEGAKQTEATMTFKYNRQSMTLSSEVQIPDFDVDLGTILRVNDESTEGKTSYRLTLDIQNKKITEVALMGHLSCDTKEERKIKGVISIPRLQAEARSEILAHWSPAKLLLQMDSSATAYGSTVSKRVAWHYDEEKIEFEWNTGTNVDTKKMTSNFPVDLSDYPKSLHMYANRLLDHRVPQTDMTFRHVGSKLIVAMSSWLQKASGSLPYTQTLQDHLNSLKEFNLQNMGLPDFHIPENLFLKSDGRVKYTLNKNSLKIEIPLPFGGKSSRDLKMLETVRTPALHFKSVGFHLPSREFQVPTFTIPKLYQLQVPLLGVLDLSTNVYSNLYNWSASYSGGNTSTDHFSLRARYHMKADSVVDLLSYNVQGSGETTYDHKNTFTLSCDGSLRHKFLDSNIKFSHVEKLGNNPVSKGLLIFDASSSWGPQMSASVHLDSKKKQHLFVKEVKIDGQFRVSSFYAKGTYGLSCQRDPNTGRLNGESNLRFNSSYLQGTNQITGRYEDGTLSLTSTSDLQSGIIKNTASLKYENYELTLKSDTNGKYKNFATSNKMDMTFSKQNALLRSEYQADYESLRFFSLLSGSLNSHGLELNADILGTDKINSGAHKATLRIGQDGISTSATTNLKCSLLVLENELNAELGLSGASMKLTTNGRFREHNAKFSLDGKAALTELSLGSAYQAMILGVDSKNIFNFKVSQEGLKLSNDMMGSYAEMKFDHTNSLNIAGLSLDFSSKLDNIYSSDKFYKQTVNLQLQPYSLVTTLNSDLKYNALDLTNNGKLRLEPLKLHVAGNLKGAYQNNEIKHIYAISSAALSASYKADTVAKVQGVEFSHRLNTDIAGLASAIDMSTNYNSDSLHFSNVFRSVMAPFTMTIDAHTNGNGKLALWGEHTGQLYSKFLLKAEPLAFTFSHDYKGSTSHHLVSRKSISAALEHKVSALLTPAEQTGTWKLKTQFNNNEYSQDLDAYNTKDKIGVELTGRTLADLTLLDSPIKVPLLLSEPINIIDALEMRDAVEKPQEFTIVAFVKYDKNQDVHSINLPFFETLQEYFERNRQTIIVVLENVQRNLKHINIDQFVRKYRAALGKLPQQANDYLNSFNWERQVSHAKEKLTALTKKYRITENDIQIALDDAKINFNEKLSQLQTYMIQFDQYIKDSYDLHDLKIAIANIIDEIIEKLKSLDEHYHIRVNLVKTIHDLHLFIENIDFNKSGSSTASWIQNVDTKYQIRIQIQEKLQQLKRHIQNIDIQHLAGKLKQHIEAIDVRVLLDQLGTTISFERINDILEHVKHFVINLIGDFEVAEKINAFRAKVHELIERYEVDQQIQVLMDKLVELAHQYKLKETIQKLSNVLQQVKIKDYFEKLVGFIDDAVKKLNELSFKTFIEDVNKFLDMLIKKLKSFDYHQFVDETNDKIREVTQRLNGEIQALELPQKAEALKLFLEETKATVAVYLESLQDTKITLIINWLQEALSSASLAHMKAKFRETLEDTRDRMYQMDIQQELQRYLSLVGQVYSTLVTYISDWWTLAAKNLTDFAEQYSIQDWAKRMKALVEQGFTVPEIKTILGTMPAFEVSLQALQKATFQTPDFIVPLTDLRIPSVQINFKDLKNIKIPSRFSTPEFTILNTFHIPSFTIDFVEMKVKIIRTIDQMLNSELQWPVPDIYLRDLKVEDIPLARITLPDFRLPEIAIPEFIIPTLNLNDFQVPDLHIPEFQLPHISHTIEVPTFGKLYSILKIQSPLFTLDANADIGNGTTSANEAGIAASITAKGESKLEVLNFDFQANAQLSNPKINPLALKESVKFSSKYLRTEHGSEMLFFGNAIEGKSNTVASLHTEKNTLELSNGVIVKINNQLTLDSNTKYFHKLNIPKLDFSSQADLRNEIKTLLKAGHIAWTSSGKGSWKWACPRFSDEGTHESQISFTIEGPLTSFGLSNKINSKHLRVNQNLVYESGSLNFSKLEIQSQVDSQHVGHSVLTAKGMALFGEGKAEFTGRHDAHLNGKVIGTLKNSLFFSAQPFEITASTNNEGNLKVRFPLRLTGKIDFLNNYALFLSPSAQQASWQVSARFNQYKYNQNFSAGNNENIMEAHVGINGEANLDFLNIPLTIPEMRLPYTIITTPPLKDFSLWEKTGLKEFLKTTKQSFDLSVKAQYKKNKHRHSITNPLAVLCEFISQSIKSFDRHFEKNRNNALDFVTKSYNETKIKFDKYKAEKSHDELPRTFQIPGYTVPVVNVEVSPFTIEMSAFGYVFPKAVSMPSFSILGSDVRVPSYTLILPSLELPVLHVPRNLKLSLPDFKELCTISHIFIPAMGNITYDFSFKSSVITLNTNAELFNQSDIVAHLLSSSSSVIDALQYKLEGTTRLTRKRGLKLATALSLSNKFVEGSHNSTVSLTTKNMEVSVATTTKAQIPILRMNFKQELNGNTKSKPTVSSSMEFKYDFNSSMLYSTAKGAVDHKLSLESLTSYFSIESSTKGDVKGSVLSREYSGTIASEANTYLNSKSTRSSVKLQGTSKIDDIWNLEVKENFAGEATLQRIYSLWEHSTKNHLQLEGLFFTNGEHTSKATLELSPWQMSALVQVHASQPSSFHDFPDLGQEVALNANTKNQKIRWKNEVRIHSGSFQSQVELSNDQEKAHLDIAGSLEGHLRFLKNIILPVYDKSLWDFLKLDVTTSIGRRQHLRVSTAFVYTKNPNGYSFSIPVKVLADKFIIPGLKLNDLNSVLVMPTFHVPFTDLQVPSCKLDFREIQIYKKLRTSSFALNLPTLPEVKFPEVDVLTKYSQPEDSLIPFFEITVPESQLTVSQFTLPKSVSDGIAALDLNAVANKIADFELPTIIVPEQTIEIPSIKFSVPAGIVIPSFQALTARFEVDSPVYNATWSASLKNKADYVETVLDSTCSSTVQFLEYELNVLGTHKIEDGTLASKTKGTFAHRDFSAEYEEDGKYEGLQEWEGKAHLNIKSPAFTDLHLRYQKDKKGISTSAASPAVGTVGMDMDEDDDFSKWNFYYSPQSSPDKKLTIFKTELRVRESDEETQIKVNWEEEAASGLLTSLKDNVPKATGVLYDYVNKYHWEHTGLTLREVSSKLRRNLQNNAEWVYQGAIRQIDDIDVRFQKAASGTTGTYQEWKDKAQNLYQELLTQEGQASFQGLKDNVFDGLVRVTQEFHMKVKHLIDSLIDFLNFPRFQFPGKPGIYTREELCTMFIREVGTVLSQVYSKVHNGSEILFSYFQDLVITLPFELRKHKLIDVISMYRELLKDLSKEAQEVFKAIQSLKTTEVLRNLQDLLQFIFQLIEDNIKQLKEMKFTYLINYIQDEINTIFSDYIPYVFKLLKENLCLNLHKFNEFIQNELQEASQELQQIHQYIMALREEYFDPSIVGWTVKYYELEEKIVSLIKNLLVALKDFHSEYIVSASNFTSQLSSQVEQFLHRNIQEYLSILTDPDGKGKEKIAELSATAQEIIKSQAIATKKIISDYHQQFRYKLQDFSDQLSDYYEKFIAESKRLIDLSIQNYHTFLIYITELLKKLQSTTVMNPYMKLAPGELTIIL

B1: SAM-6 1.1A scFv (scFv)
scFv: QVQLVESGGGVVQPGRSLRLSCAASGFTFSSYAMHWVRQAPGKGLEWVAVISYDGSNKYYADSVKGRFTISRDNSKNTLYLQMNSLRAEDTAVYYCARDRLAVAGRPFDYWGQGTLVTVSSGGGGS[left out - about 100 residues]
notes: scFv dimer (diabody) expressed in bacteria from the pPOW vector; also called scFv 1.1A; SAM-6 1.1A diabody; not shown: C-terminal FLAG tag (a His tag is implied by anti-HIS purification)
Regarding B1, the binding result in the test with Apolipoprotein B100 [1] is “binds”.

B2: SAM-6 KTA scFv (scFv)
scFv: QVQLVESGGGVVQPGRSLRLSCAASGFTFSSYAMHWVRQAPGKGLEWVAVISYDGSNKYYADSVKGRFTISRDNSKNTLYLQMNSLRAEDTAVYYCARDRLAVAGKTFDYWGQGTLVTVSSGGGGS[left out - about 100 residues]
notes: scFv dimer, bacterial expression; also called scFv KTA (SAM-6 old); KTA diabody; not shown: FLAG tag (and His tag, anti-HIS purification)
For B2, the binding result with Apolipoprotein B100 [1] is listed as “binds”.

B3: SAM-6 2.7A scFv (scFv)
scFv: EVQLVESGGGVVQPGRSLRLSCAASGFTFSSYAMHWVRQAPGKGLEWVAVISYDGSNKYYADSVKGRFTISRDNSKNTLYLQMNSLRAEDTAVYYCARDRLAVAGRPFDYWGQGTLVTVSSGGGGS[left out - about 100 residues]
notes: also called SAM-6.2.7.ScFv; SM6 2.7A scFv; not shown: FLAG tag (and His tag, Ni-NTA purification)
Take B3: the binding result with Apolipoprotein B100 [2] is “binds”.
